Measured values from the supplement of paper PMC10338343.
± gives the standard deviation. The entries are a selection whose mix differs from that of the whole data set.

Test system: MIWI (PIWIL1) piRISC loaded with piRNA #1 (30 nt)
Experiment: pre-steady-state target cleavage rate (min^-1); MIWI and MILI are mouse PIWI proteins and EfPiwi is from a freshwater sponge; tags in brackets are library labels; higher = faster piRNA-guided slicing of the target
Details: guide: piRNA #1 5'p-UGAGGUAGUAGGUUGUAUAGUAUCCAGAGG; auxiliary factor: 500 nM mouse GTSF1
Procedure, shortened: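 Reactions were run for 0–8 or 0–960 min at 33 °C in HEPES–potassium acetate buffer, combining 1 nM active affinity-purified piRISC with one synthetic guide, […] transcribed, DNA-blocked target RNA library and, in some cases, 500 nM GTSF1 partner protein. Sequencing of uncleaved targets followed, with normalisation to depth and to weakly complementary targets. Three trials were pooled, k3 was capped at 0.0001 min^-1, and the pre-steady-state cleavage rate was taken from a burst-and-steady-state fit.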
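Further: 1 nM active piRISC with 0.1 nM target library at 33 °C single turnover.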

Sequence	pre-steady-state target cleavage rate
GGAGACCUUACUAUAGAACCUACAACCUCA	0.0303 ± 0.0095
GGAGACCAUUCUAUACAACCUUCUACCUCA	0.236 ± 0.019
GGAGAGGUUACUAUACAACCUACUACCACA	0.352 ± 0.023
GGAGUGGAUACUAUACAACCUACUAGCCUCA	0.621 ± 0.089
GGACUGGAUACUAUACAACCUACUAACCUCA	0.843 ± 0.068
GGAGUCGAUACUAUACAACCUACUACCUCA	1.47 ± 0.091
GGUCGGGAUACUAUACAACCUACUACCUCA	1.66 ± 0.11
GGAGUGGGAUACUAUACAACCUACUACCUCA	1.68 ± 0.074
GGAGACCAUACUAUACUACCUACAACCUCA	0.241 ± 0.028
GGAGACCUAUCUAUUACAACCUACUACCUCA	0.105 ± 0.02
CCUCUGGAUACUAUACUACCUACUACCUCA	1.65 ± 0.12
GCUCUGGAUACUUUACAACCUACUAGCUCA	0.805 ± 0.073
GGAGACCUUACUAUACAACCUUCUAGCUCA	0.121 ± 0.014
GCUCUGGAUACUCUACAACCUACUACCUCA	1.57 ± 0.081
GCUCUGGAUACUAUACAUCGUACUACCUCA	0.579 ± 0.047
GGAGUGGAAACUAUACAACCUACUACGUCA	0.436 ± 0.046
GCUCUGGAUACUAUACAACCUUCUUCCUCA	0.305 ± 0.026
GCUCUGGAAACUUUACAACCUACUACCUCA	1.59 ± 0.12
GGAGACCUAACUAUACAUCCUACUUCCUCA	0.0847 ± 0.025
GGAGACCUUACUAAACAACCUACUUCCUCA	0.075 ± 0.015

Sequence	pre-steady-state target cleavage rate
GGAGACCAUACUAUAGAACCUACUACCUGA	0.163 ± 0.038
GGAGACCUUAUUAUACAACCUACUACCUCA	1.46 ± 0.13
GGACAGCAUACUAUACAACCUACUACCUCA	1.55 ± 0.11
GGAGUGGAUACUUUACAACCUACUACCACA	0.251 ± 0.024
GCUCUGGAUACAAUACAACCUACAACCUCA	1.09 ± 0.071
GGACUGCAUACUAAACAACCUACUACCUCA	1.34 ± 0.13
CCUGUGGAUACUAUUCAACCUACUACCUCA	1.81 ± 0.1
GGAGACCUUAGUAUACAUCCUACUACCUCA	0.152 ± 0.021
GGACUGGACACUAUACAACCUACUACCUCA	1.63 ± 0.14
CCUCUGGUAUCUAUACAACCUACUACCUCA	1.18 ± 0.055
GGACUGCAUACUUUACAACCUACUACCUCA	1.27 ± 0.12
GCUGUGGAUACUAUACUACCUACUACCUCA	1.54 ± 0.097
CCUCUGGAUACUAUGACAACCUACUACCUCA	1.58 ± 0.095
GGAGACCUAACUAUACAACCUAGUACCUCA	0.299 ± 0.051
GGUCUGGAUACUAUACAACCUACUAUCCUCA	0.489 ± 0.043
GCUCUGGUUACUAUACAAGCUACUACCUCA	1.25 ± 0.054
GGAGAGGAUAAUAUACAACCUACUACCUCA	1.05 ± 0.058
GGUCUGGAUACUAUACAACGUACUACCACA	0.685 ± 0.061
GGACUGGAUACUAUACAACCACUACCUCA	0.00431 ± 0.0027
GGAGAGGUUACUAUACAACCUAGUACCUCA	0.0202 ± 0.0062
